Laboratory results taken from PubChem BioAssay AID686978 (National Center for Advancing Translational Sciences (NCATS), 2013).
Among all 420,000 compounds or so, about 64,000 (15%) were called active. The shares of active, inactive and inconclusive entries below differ from those in the screen. Calls follow the shape of the dose curve; as a rule, active = well fitted inhibition curve with a large enough effect; inconclusive = small, poorly fitted or top-dose-only effect; inactive = flat fitted curve, though single readings scatter. No potency is given beside an inconclusive call; the fits are too rough.

test: qHTS for Inhibitors of human tyrosyl-DNA phosphodiesterase 1 (TDP1): qHTS in cells in absence of CPT; conditions: DT40 Tdp1-/- hTDP1 cells, no CPT, ATP luminescence, 48 h; activity change, negative = growth inhibition: at 46.2 µM (top of the series) unless noted; also: nearly all actives have a fitted effect of over 55% in size
Summary of the method: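 Chicken DT40 Tdp1-/- cells complemented with human TDP1, screened without camptothecin (DMSO vehicle only), 400 cells/well. Compounds pin-transferred, cells incubated at 37 °C for at least 48 hr. Growth read as ATP-dependent luminescence (CellTiter-Glo, 30 min at RT).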
% is scaled to controls: 0 for no effect and ±100 for the full control effect; potency is read from the fitted curve at half-maximal effect; tags tell the direction and shape of the fitted curve.

Row | SMILES | Potency | activity change, negative = growth inhibition
1 | CCCCc1ccc(NC(=O)c2cc3c(=O)n4ccccc4nc3n2C)cc1 | inconclusive [inhibitor, single point] | 
2 | Cc1ccc(SCC(=O)c2cc(C)c(O)c(C)c2)cc1 | inconclusive [inhibitor, single point] | 
3 | CCCCc1nnc(NC(=O)c2ccccc2OCc2c(C)noc2C)s1 | active: 23.1 µM | 
4 | FC(F)(F)c1cccnc1N1CCN(c2ncnc3nc[nH]c23)CC1 | inconclusive [inhibitor, single point] | 
5 | O=C(NCc1ccco1)/C(=C/c1ccco1)NC(=O)c1ccccc1 |  | inactive: -12.2%
6 | CCN(CC)C(=O)c1cccc(-c2csc(C(O)c3ccc(F)c(F)c3)n2)c1 (stereo not drawn) | inconclusive [inhibitor, single point] | 
7 | CC(=O)N1CCN(C(=O)CNC(=O)c2ccc(C)s2)CC1 |  | inactive: -18%
8 | Cc1ccc(NC(=O)CSc2nn(-c3ccc(Cl)cc3)c(=S)s2)cc1S(=O)(=O)N(C)C | inconclusive [inhibitor, single point] | 
9 | Cc1ccc(N2CC(NS(=O)(=O)c3cc(F)ccc3F)CC2=O)cc1C (stereo not drawn) |  | inactive: 1.64%
10 | Cn1cc([N+](=O)[O-])c(C(=O)N(Cc2ccccc2)Cc2ccccc2)n1 | active: 25.9 µM | 
11 | Cc1cccc(C2=NN(c3ccccc3)[C@H](CO)[C@H]2c2ccc(F)cc2)c1 | inconclusive [inhibitor, single point] | 
12 | COc1ccc(S(=O)(=O)N(C)C[C@@H]2OCc3cnnn3CCCC(=O)N([C@@H](C)CO)C[C@H]2C)cc1 |  | inactive: -1.19%
13 | Cc1ccccc1/C=C1\SC(=S)N(/N=C/c2cc([N+](=O)[O-])ccc2O)C1=O | inconclusive [inhibitor, partial curve, poor fit] | 
14 | COC(=O)[C@@H]1CCCN1Cc1ccc2c(c1)CN(Cc1cccn1-c1ccc(Cl)cn1)CCO2 | inconclusive [inhibitor, single point] | 
15 | COc1ccc(OC)c(Nc2nc(-c3ccccc3O)nc3ccccc23)c1 | inconclusive [inhibitor, partial curve] | 
16 | CC(=O)Nc1ccc(OCC(O)Cn2nc(C)c(C(C)=O)c2C)cc1 (stereo not drawn) |  | inactive: -3.09%
17 | OC(c1ccc(F)c(F)c1)c1nc(-c2cccc(F)c2)cs1 (stereo not drawn) | inconclusive [inhibitor, single point] | 
18 | O=C(CC(CC(=O)c1ccccc1)c1ccccc1)c1ccccc1 | inconclusive [inhibitor, single point] | 
19 | NC(=O)c1cnn(C2CCS(=O)(=O)C2)c1 (stereo not drawn) |  | inactive: -1.02%
20 | Cc1ccc(C)c(C(=O)COC(=O)c2cc([N+](=O)[O-])ccc2N2CCOCC2)c1 | inconclusive [inhibitor, single point] | 
21 | C=CCc1cc(OC)ccc1OCCOCCC(C(=O)OCC)C(=O)OCC |  | inactive: -11.7%
22 | CC(C)(C)OC(=O)C[C@H]1C/C=C\C[C@H](CC(=O)N(CCO)Cc2ccccc2)C(=O)NCCOC1=O | inconclusive [inhibitor, partial curve] | 

Row | SMILES | Potency | activity change, negative = growth inhibition
23 | CCN(CC)S(=O)(=O)c1ccc(NC(=O)[C@H](CSCc2ccccc2)N2Cc3ccccc3C2=O)cc1 | inconclusive [inhibitor, partial curve] | 
24 | Clc1ccc2c(ccc[n+]2CCc2ccccc2)c1 | inconclusive [inhibitor, single point] | 
25 | CCc1cccc(OCC2Cn3c(nc4c3c(=O)[nH]c(=O)n4C)O2)c1 (stereo not drawn) | inconclusive [inhibitor, partial curve] | 
26 | Cc1cc(S(=O)(=O)N2c3ccc(F)cc3CCC2C)ccc1-n1cnnn1 (stereo not drawn) |  | inconclusive: -35.8% [inhibitor]
27 | O=C(NCc1ccc2c(c1)OCO2)c1cc(-c2ccccn2)nc2ccccc12 | inconclusive [inhibitor, single point] | 
28 | O=C(NCC1CCC2(CCN(Cc3cccc4cccnc34)CC2)O1)c1ccco1 (stereo not drawn) |  | inactive: -19%
29 | C/C(=N/NC(=O)C(C)n1nc(C)c([N+](=O)[O-])c1C)c1ccc(OCC(N)=O)cc1 (stereo not drawn) | inconclusive [inhibitor, partial curve] | 
30 | CCc1ccccc1NC(=O)c1ccc(S(=O)(=O)N2CCCC2)cc1 |  | inactive: -10.7%
31 | COc1ccccc1C(=O)NC(=O)Nc1cccc(Cl)c1 | inconclusive [inhibitor, partial curve, poor fit] | 
32 | COc1ccc(NC(=O)c2ccccc2NC(=O)c2ccco2)cc1 | inconclusive [inhibitor, single point] | 
33 | CCN(CC)c1ccc2c(Cl)c(Br)c(=O)oc2c1 | active: 23.1 µM | 
34 | CCOC(=O)Cn1c(=O)oc2cc(S(=O)(=O)N3CCN(c4ccc(Cl)cc4)CC3)ccc21 | inconclusive [inhibitor, partial curve] | 
35 | O=C(CSc1nnc(CNC(=O)C23CC4CC(CC(C4)C2)C3)n1-c1ccc(F)cc1)Nc1ccccc1 | inconclusive [inhibitor, single point] | 
36 | Cc1sc(NC(=O)C2=COCCO2)c(C#N)c1C |  | inactive: -25.1%
37 | Cc1cc(C)cc(NC(=O)C2CCCN(c3nnc(C)c4c(C)n(-c5ccccc5)nc34)C2)c1 (stereo not drawn) | active: 14.6 µM | 
38 | COc1ccc(NC(=O)CN(C)S(=O)(=O)c2ccc(Cl)cc2)cn1 |  | inactive: -29.9%
39 | CCc1ccc(S(=O)(=O)c2cn(C)c3cc(N4CCCCC4C)c(F)cc3c2=O)cc1 (stereo not drawn) | active: 14.6 µM | 
40 | Cc1ccc(S(=O)(=O)NCC(c2ccc(N(C)C)cc2)N2CCCC2)cc1 (stereo not drawn) | inconclusive [inhibitor, single point] | 
41 | COc1cc(OC)cc(-c2nc3n(n2)C(c2ccccc2F)C(C(=O)Nc2cccnc2)=C(C)N3)c1 (stereo not drawn) | inconclusive [inhibitor, single point] | 
42 | Cc1ccnc(NC(=O)c2ccc(Cl)c(NC(=O)C(C)Oc3ccccc3)c2)c1 (stereo not drawn) | inconclusive [inhibitor, single point] | 
43 | O=C(/C=C/c1cccc(Br)c1)OCC(=O)N1CCN(c2ccccc2)CC1 | inconclusive [inhibitor, single point] | 
